Data on 31 molecules can be found in PMC9911399, “Two distinct binding modes provide the RNA-binding protein RbFox with extraordinary sequence specificity”.

Residue numbers refer to the chain shown, from its start. The list shows a part of the results.

First the molecules themselves.
B1: UCGGCGU (DNA:RNA)
RNA: GGGAGACCGGAAUUCAGAUUGUCCUCGGCGUUUAAAUCCCGUCGUAGCCACCA
DNA 1: CAATCTGAATTCCGGTCTCCC
DNA 2: TGGTGGCTACGACGGGATT
B2: UUUGCAG (DNA:RNA)
RNA: B1 RNA with C26U, G27U, G30A, U31G
DNA 1: CAATCTGAATTCCGGTCTCCC
DNA 2: TGGTGGCTACGACGGGATT
B3: UACUAUC (DNA:RNA)
RNA: B1 RNA with C26A, G27C, G28U, C29A, G30U, U31C
DNA 1: CAATCTGAATTCCGGTCTCCC
DNA 2: TGGTGGCTACGACGGGATT
B4: UCCAGGU (DNA:RNA)
RNA: B1 RNA with G27C, G28A, C29G
DNA 1: CAATCTGAATTCCGGTCTCCC
DNA 2: TGGTGGCTACGACGGGATT
B5: CGAAGGC (DNA:RNA)
RNA: B1 RNA with U25C, C26G, G27A, G28A, C29G, U31C
DNA 1: CAATCTGAATTCCGGTCTCCC
DNA 2: TGGTGGCTACGACGGGATT
B6: CCUUUGC (DNA:RNA)
RNA: B1 RNA with U25C, G27U, G28U, C29U, U31C
DNA 1: CAATCTGAATTCCGGTCTCCC
DNA 2: TGGTGGCTACGACGGGATT
B7: GUGGGUC (DNA:RNA)
RNA: B1 RNA with U25G, C26U, C29G, G30U, U31C
DNA 1: CAATCTGAATTCCGGTCTCCC
DNA 2: TGGTGGCTACGACGGGATT
B8: UAUGAUU (DNA:RNA)
RNA: B1 RNA with C26A, G27U, C29A, G30U
DNA 1: CAATCTGAATTCCGGTCTCCC
DNA 2: TGGTGGCTACGACGGGATT
B9: GUGUGAA (DNA:RNA)
RNA: B1 RNA with U25G, C26U, G28U, C29G, G30A, U31A
DNA 1: CAATCTGAATTCCGGTCTCCC
DNA 2: TGGTGGCTACGACGGGATT
B10: UACCUGA (DNA:RNA)
RNA: B1 RNA with C26A, G27C, G28C, C29U, U31A
DNA 1: CAATCTGAATTCCGGTCTCCC
DNA 2: TGGTGGCTACGACGGGATT
B11: GGCGAUG (DNA:RNA)
RNA: B1 RNA with U25G, C26G, G27C, C29A, G30U, U31G
DNA 1: CAATCTGAATTCCGGTCTCCC
DNA 2: TGGTGGCTACGACGGGATT
B12: UCUGCGU (DNA:RNA)
RNA: B1 RNA with G27U
DNA 1: CAATCTGAATTCCGGTCTCCC
DNA 2: TGGTGGCTACGACGGGATT
B13: UCGGAGG (DNA:RNA)
RNA: B1 RNA with C29A, U31G
DNA 1: CAATCTGAATTCCGGTCTCCC
DNA 2: TGGTGGCTACGACGGGATT
B14: ACCACCC (DNA:RNA)
RNA: B1 RNA with U25A, G27C, G28A, G30C, U31C
DNA 1: CAATCTGAATTCCGGTCTCCC
DNA 2: TGGTGGCTACGACGGGATT
B15: AUCGCUG (DNA:RNA)
RNA: B1 RNA with U25A, C26U, G27C, G30U, U31G
DNA 1: CAATCTGAATTCCGGTCTCCC
DNA 2: TGGTGGCTACGACGGGATT
B16: GGCAAAG (DNA:RNA)
RNA: GGGAGACCGGAAUUCAGAUUGUCCGGCAAAGUUAAAUCCCGUCGUAGCCACCA
DNA 1: CAATCTGAATTCCGGTCTCCC
DNA 2: TGGTGGCTACGACGGGATT
B17: AAGCUAU (DNA:RNA)
RNA: B1 RNA with U25A, C26A, G28C, C29U, G30A
DNA 1: CAATCTGAATTCCGGTCTCCC
DNA 2: TGGTGGCTACGACGGGATT
B18: AUUUCAG (DNA:RNA)
RNA: B16 RNA with G25A, G26U, C27U, A28U, A29C
DNA 1: CAATCTGAATTCCGGTCTCCC
DNA 2: TGGTGGCTACGACGGGATT
B19: UCCGCGA (DNA:RNA)
RNA: B1 RNA with G27C, U31A
DNA 1: CAATCTGAATTCCGGTCTCCC
DNA 2: TGGTGGCTACGACGGGATT
B20: ACUAGCG (DNA:RNA)
RNA: B16 RNA with G25A, G26C, C27U, A29G, A30C
DNA 1: CAATCTGAATTCCGGTCTCCC
DNA 2: TGGTGGCTACGACGGGATT
B21: UAAGCUC (DNA:RNA)
RNA: B1 RNA with C26A, G27A, G30U, U31C
DNA 1: CAATCTGAATTCCGGTCTCCC
DNA 2: TGGTGGCTACGACGGGATT
B22: AUCCGAA (DNA:RNA)
RNA: B16 RNA with G25A, G26U, A28C, A29G, G31A
DNA 1: CAATCTGAATTCCGGTCTCCC
DNA 2: TGGTGGCTACGACGGGATT
B23: GGCACUC (DNA:RNA)
RNA: B16 RNA with A29C, A30U, G31C
DNA 1: CAATCTGAATTCCGGTCTCCC
DNA 2: TGGTGGCTACGACGGGATT
B24: ACAAAAC (DNA:RNA)
RNA: B16 RNA with G25A, G26C, C27A, G31C
DNA 1: CAATCTGAATTCCGGTCTCCC
DNA 2: TGGTGGCTACGACGGGATT
B25: AUACACU (DNA:RNA)
RNA: B16 RNA with G25A, G26U, C27A, A28C, A30C, G31U
DNA 1: CAATCTGAATTCCGGTCTCCC
DNA 2: TGGTGGCTACGACGGGATT
B26: GGAAGAC (DNA:RNA)
RNA: B16 RNA with C27A, A29G, G31C
DNA 1: CAATCTGAATTCCGGTCTCCC
DNA 2: TGGTGGCTACGACGGGATT
B27: UGCAUAC (DNA:RNA)
RNA: B16 RNA with G25U, A29U, G31C
DNA 1: CAATCTGAATTCCGGTCTCCC
DNA 2: TGGTGGCTACGACGGGATT
B28: AACUUUG (DNA:RNA)
RNA: B16 RNA with G25A, G26A, A28U, A29U, A30U
DNA 1: CAATCTGAATTCCGGTCTCCC
DNA 2: TGGTGGCTACGACGGGATT
B29: GUUGGAU (DNA:RNA)
RNA: B16 RNA with G26U, C27U, A28G, A29G, G31U
DNA 1: CAATCTGAATTCCGGTCTCCC
DNA 2: TGGTGGCTACGACGGGATT
B30: UGACAGA (DNA:RNA)
RNA: B16 RNA with G25U, C27A, A28C, A30G, G31A
DNA 1: CAATCTGAATTCCGGTCTCCC
DNA 2: TGGTGGCTACGACGGGATT
B31: ACUCGAA (DNA:RNA)
RNA: B16 RNA with G25A, G26C, C27U, A28C, A29G, G31A
DNA 1: CAATCTGAATTCCGGTCTCCC
DNA 2: TGGTGGCTACGACGGGATT

The target in this assay is T1, RBFOX1 RRM (Homo sapiens, UniProt Q9NWB1 109-208).
T1 sequence: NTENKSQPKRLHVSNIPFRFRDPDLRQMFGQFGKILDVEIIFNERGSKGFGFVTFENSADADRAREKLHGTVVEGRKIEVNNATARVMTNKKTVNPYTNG
The assay is described as follows: EMSA; HiTS-Eq, 1 nM pool, 10 min; buffer printed only for the single-RNA assays: 10 mM Tris pH 7.5, 150 mM NaCl, 3.4 mM EDTA, 0.001% NP-40, 30 C. The settings on record: tags: His6 N-terminal (pET28a); label: 5' 32P. In short, it runs like this:
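These values rest on relative association constants, computed from read-count changes of each RNA species versus the control reaction and normalised to the cognate motif. Reads came from free RNA recovered by 8% native PAGE after purified RbFox RRM (wild type or mutant) at increasing concentrations was equilibrated for 10 min in 50 µL with 1 nM of a 5′-radiolabelled pool with 7 randomized nucleotides and DNA-annealed flanks.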
(A gel shift assay detects complexes by their altered migration in electrophoresis.)
With B1, the binding signal is 0.0179 KA relative to UGCAUGU.

On to B2, for which the binding signal is 0.022 KA relative to UGCAUGU.

In the case of B3, the binding signal is 0.0027 KA relative to UGCAUGU.

As to B4, the binding signal was 0.00893 KA relative to UGCAUGU.

With B5, the binding signal is 0.0104 KA relative to UGCAUGU.

B6: the binding signal was 0.0102 KA relative to UGCAUGU.

B7: the binding signal was 0.0192 KA relative to UGCAUGU.

Turning to B8, the binding signal was 0.0125 KA relative to UGCAUGU.

For the molecule B9, the binding signal is 0.00704 KA relative to UGCAUGU.

Regarding B10, the binding signal was 0.00881 KA relative to UGCAUGU.

Regarding B11, the binding signal was 0.0266 KA relative to UGCAUGU.

Regarding B12, the binding signal was 0.0172 KA relative to UGCAUGU.

For the molecule B13, the binding signal was 0.00791 KA relative to UGCAUGU.

On to B14, for which the binding signal was 0.00173 KA relative to UGCAUGU.

As to B15, the binding signal was 0.0101 KA relative to UGCAUGU.

Regarding B16, the binding signal is 0.00447 KA relative to UGCAUGU.

In the case of B17, the binding signal was 0.00447 KA relative to UGCAUGU.

In the case of B18, the binding signal is 0.00978 KA relative to UGCAUGU.

Take B19: the binding signal was 0.0124 KA relative to UGCAUGU.

For the molecule B20, the binding signal was 0.00565 KA relative to UGCAUGU.

For B21, the binding signal was 0.0122 KA relative to UGCAUGU.

For B22, the binding signal is 0.00534 KA relative to UGCAUGU.

In the case of B23, the binding signal was 0.0152 KA relative to UGCAUGU.

Consider B24, for which the binding signal was 0.00148 KA relative to UGCAUGU.

On to B25, for which the binding signal was 0.000753 KA relative to UGCAUGU.

Consider B26, for which the binding signal was 0.0164 KA relative to UGCAUGU.

As to B27, the binding signal was 0.0146 KA relative to UGCAUGU.

Regarding B28, the binding signal is 0.0106 KA relative to UGCAUGU.

For the molecule B29, the binding signal is 0.0105 KA relative to UGCAUGU.

Consider B30, for which the binding signal was 0.0182 KA relative to UGCAUGU.

Take B31: the binding signal is 0.00562 KA relative to UGCAUGU.
